Measurements: publication PMC4749642, “Evaluation of anticonvulsant and antinociceptive properties of new N-Mannich bases derived from pyrrolidine-2,5-dione and 3-methylpyrrolidine-2,5-dione” (Naunyn-Schmiedeberg's Archives of Pharmacology, 2015)
Where two headings read alike, the source gives them in different places.

Columns and labels:
[1] = test system: voltage-sensitive sodium channel (site 2); details: [3H]batrachotoxin, rat cerebral cortex
[2] = test system: voltage-sensitive sodium channel (site 2); details: [3H]batrachotoxin, rat cerebral cortex, cited from earlier work

| Structure (SMILES) | % inhibition of control specific binding ([1]; 10 μM) | % inhibition of control specific binding ([1]; 100 μM) | also measured |
| --- | --- | --- | --- |
| O=C1CCC(=O)N1CN1CCN(c2ccc(Cl)c(Cl)c2)CC1 [Compound 23, N-[{4-(3,4-dichlorophenyl)-piperazin-1-yl}-methyl]-pyrrolidine-2,5-dione] | 49.4% | 89.9% | – |
| O=C1NC(=O)C(c2ccccc2)(c2ccccc2)N1 [Phenytoin, reference compound] | – | – | % inhibition of control specific binding ([2]; 10 μM, ref Rybka et al. [2015]): 10.6%; % inhibition of control specific binding ([2]; 100 μM, ref Rybka et al. [2015]): 21.2% |
| NC(=O)N1c2ccccc2C=Cc2ccccc21 [Carbamazepine] | – | – | % inhibition of control specific binding ([2]; 10 μM, ref Kamiński et al. [2015b]): 4.6%; % inhibition of control specific binding ([2]; 100 μM, ref Kamiński et al. [2015b]): 17.4% |
| CC1CC(=O)N(CN2CCN(c3ccc(Cl)c(Cl)c3)CC2)C1=O (centres unmarked) [Compound 12, N-[{4-(3,4-dichlorophenyl)-piperazin-1-yl}-methyl]-3-methylpyrrolidine-2,5-dione] | 49.1% | 85.8% | – |
